Type in all cases: toxicity, cell-based
The test system of one data set is U2OS. Briefly: Multiplex assay against U2OS. Particulars: human. Put shortly: (§1)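 Phenotypes for tubulin, mitochondrial mass and membrane permeability are expressed as per cents of healthy-nucleus cells. Cells were stained live at seeding with Hoechst33342, BioTracker Green Microtubule Cytoskeleton Dye, MitoTracker Red and Annexin V Alexa Fluor 680, then imaged after compound addition on a CQ1 microscope at 37°C and 5% CO2. Machine-learning gating in CellPathfinder separated Hoechst high-intensity objects from normal cells, divided normal cells by nuclear state (healthy, pyknosed, fragmented) and divided pyknosed cells into mitotic or apoptotic.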

For another data set, the system named is Fibroblast. Briefly: Multiplex assay against human fibroblast. Put shortly:
as §1

The test system of another data set is HEK-293T. Description: Multiplex assay against HEK293T.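 On Population Tubulin-Different-Phenotype (%): share of the cells with healthy nuclei that show this phenotype.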 Particulars: human. The method, boiled down: as §1
Setting [1] is: 12 h, 10 µM, compound concentration 10 uM, replicate 1.
Setting [2] is: 12 h, 10 µM, compound concentration 10 uM, replicate 2.
The mark [3] stands for this setting: 24 h, 10 µM, compound concentration 10 uM, replicate 1.
The mark [4] stands for this setting: 24 h, 10 µM, compound concentration 10 uM, replicate 2.
Setting [5] is: 12 h, 1 µM, compound concentration 1 uM, replicate 1.
[6] abbreviates: 12 h, 1 µM, compound concentration 1 uM, replicate 2.
[7] abbreviates: 24 h, 1 µM, compound concentration 1 uM, replicate 1.
The mark [8] stands for this setting: 24 h, 1 µM, compound concentration 1 uM, replicate 2.

SMILES strings stand for the structures. Not every entry of the source has a single result; some have several. They are shown here; other results are not. The source may hold further records. Results that share an entry are repeated measurements across runs, samples, wells, individuals or studies.

Regarding `CCN1CCN(Cc2ccc(NC(=O)c3ccc(C)c(Oc4ccnc5[nH]ccc45)c3)cc2C(F)(F)F)CC1.Cl.Cl.Cl.O`, the “Population Fragmented Nuclei (%)” value was 29% and 3% with U2OS (setting [1]); 18% and 2% with U2OS (setting [3]); 1% and 13% in the data set on HEK-293T (setting [4]). Further, the “Population Mitochondria Different-Phenotype (%)” value with U2OS (setting [1]) was 84% and 8%; in the data set with U2OS (setting [2]), 100% and 16%; in the data set with U2OS (setting [3]), 93% and 7%; in the data set with U2OS (setting [4]) it was 100% and 15%; with Fibroblast (setting [4]), 11% and 37%; in the data set on HEK-293T (setting [1]), 14% and 59%. For the same molecule, the “Population Mitochondria Different-Phenotype (%)” value was 67% and 20% in the data set with HEK-293T (setting [2]); 75% and 10% in the data set with HEK-293T (setting [3]); 80% and 4% in the data set with HEK-293T (setting [4]). For the same molecule, the “Population Pyknosed Nuclei (%)” value in the data set on U2OS (setting [1]) was 35% and 8%; with U2OS (setting [4]), 60% and 11%; in the data set with Fibroblast (setting [2]) it was 2% and 19%; with Fibroblast (setting [4]) it was 4% and 30%; in the data set with HEK-293T (setting [2]), 30% and 6%; with HEK-293T (setting [3]), 53% and 17%. Further, in the data set on HEK-293T (setting [4]), the “Population Pyknosed Nuclei (%)” value was 26% and 2%. Also, the “Population Tubulin-Different-Phenotype (%)” value is 98% and 12% in the data set on U2OS (setting [1]); 100% and 9% in the data set on U2OS (setting [2]); 100% and 7% in the data set with U2OS (setting [4]); 9% and 75% in the data set with HEK-293T (setting [1]); 97% and 21% with HEK-293T (setting [2]); 74% and 24% with HEK-293T (setting [3]). Moreover, the “Population Tubulin-Different-Phenotype (%)” value with HEK-293T (setting [4]) was 98% and 19%. Moreover, the “Population Apoptotic (%)” value was 69% and 12% in the data set with U2OS (setting [2]); 0% and 55% in the data set on Fibroblast (setting [2]); 52% and 12% in the data set with HEK-293T (setting [2]); 78% and 23% with HEK-293T (setting [3]); 67% and 8% in the data set with HEK-293T (setting [4]). The “Population Healthy Nuclei (%)” value with U2OS (setting [3]) is 21% and 86%; with U2OS (setting [4]), 23% and 77%. Further, the “Population Hoechst High Intensity Objects (%)” value with U2OS (setting [3]) is 20% and 1%. Further, the “Population Membrane Permeable-Phenotype (%)” value was 68% and 11% in the data set on U2OS (setting [3]); 70% and 15% in the data set on U2OS (setting [4]); 35% and 0% in the data set with Fibroblast (setting [4]). For the same molecule, the “Population Mitotic Cells (%)” value is 10% and 62% with U2OS (setting [3]); 9% and 41% with U2OS (setting [4]); 21% and 76% in the data set on HEK-293T (setting [3]).
As to `Cc1c(Oc2ccc(F)cc2)c(OC(C)C)nn1-c1ccc(C2CC2)cn1` [IPP/CNRS-A019], in the data set with U2OS (setting [4]), the “Population Apoptotic (%)” value is 77% and 16%; the “Population Mitotic Cells (%)” value is 22% and 83%. In the data set with Fibroblast (setting [2]), the “Population Apoptotic (%)” value was 27% and 100%; the “Population Membrane Permeable-Phenotype (%)” value was 22% and 7%; the “Population Mitotic Cells (%)” value was 72% and 0%; the “Population Pyknosed Nuclei (%)” value is 17% and 4%. Also, the “Population Tubulin-Different-Phenotype (%)” value in the data set with Fibroblast (setting [2]) was 6% and 35%. For the same molecule, in the data set with Fibroblast (setting [4]), the “Population Apoptotic (%)” value is 16% and 100%; the “Population Mitochondria Different-Phenotype (%)” value is 17% and 5%; the “Population Mitotic Cells (%)” value is 83% and 0%; the “Population Pyknosed Nuclei (%)” value was 9% and 1%. Also, in the data set on Fibroblast (setting [4]), the “Population Tubulin-Different-Phenotype (%)” value was 3% and 27%. Also, in the data set with HEK-293T (setting [2]), the “Population Tubulin-Different-Phenotype (%)” value is 21% and 5%. Moreover, the “Population Mitochondria Different-Phenotype (%)” value in the data set on HEK-293T (setting [4]) was 1% and 12%.
In the case of `C[C@@H]1CN(c2cc(-c3nn(C)c4ccc(OC5(C)CC5)cc34)ncn2)C[C@H](C)O1` [MLi-2-NC], the “Population Apoptotic (%)” value with U2OS (setting [4]) is 0% and 66%. The “Population Mitotic Cells (%)” value in the data set on U2OS (setting [4]) is 100% and 33%. Further, the “Population Membrane Permeable-Phenotype (%)” value with Fibroblast (setting [1]) is 13% and 2%. The “Population Tubulin-Different-Phenotype (%)” value was 19% and 1% in the data set with Fibroblast (setting [1]); 1% and 8% with HEK-293T (setting [1]); 3% and 17% with HEK-293T (setting [3]); 7% and 23% with HEK-293T (setting [4]). In addition, the “Population Pyknosed Nuclei (%)” value in the data set with Fibroblast (setting [2]) is 18% and 4%; in the data set on Fibroblast (setting [4]), 25% and 8%. In the data set on Fibroblast (setting [4]), the “Population Mitochondria Different-Phenotype (%)” value is 28% and 7%.
On to `O=C(O)c1ccc2c(c1)nc(Nc1cccc(Cl)c1)c1ccncc12` [SILMITASERTIB], for which the “Population Mitochondria Different-Phenotype (%)” value in the data set on U2OS (setting [1]) was 10% and 35%; with Fibroblast (setting [4]), 7% and 25%. In addition, the “Population Tubulin-Different-Phenotype (%)” value in the data set with Fibroblast (setting [3]) was 5% and 1%; in the data set with HEK-293T (setting [2]), 20% and 5%; with HEK-293T (setting [4]), 32% and 4%.
In the case of `FC(F)c1nc2ccccc2n1-c1nc(N2CCOCC2)nc(N2CCOCC2)n1` [ZSTK-474], the “Population Apoptotic (%)” value with U2OS (setting [5]) is 43% and 11%; with U2OS (setting [6]) it was 16% and 71%; in the data set with U2OS (setting [7]), 75% and 14%; with Fibroblast (setting [6]) it was 0% and 33%. Also, the “Population Mitochondria Different-Phenotype (%)” value with U2OS (setting [5]) was 4% and 15%; in the data set with Fibroblast (setting [7]), 5% and 1%; in the data set on HEK-293T (setting [6]) it was 32% and 7%; with HEK-293T (setting [7]), 19% and 5%; in the data set on HEK-293T (setting [8]), 22% and 2%. Besides, the “Population Membrane Permeable-Phenotype (%)” value with U2OS (setting [7]) is 16% and 5%; with Fibroblast (setting [5]) it was 12% and 2%. Besides, the “Population Mitotic Cells (%)” value with U2OS (setting [7]) is 25% and 85%. In addition, the “Population Tubulin-Different-Phenotype (%)” value is 15% and 1% in the data set with Fibroblast (setting [5]); 7% and 60% in the data set on Fibroblast (setting [6]); 8% and 30% in the data set with Fibroblast (setting [8]); 6% and 19% in the data set on HEK-293T (setting [5]); 51% and 7% with HEK-293T (setting [6]); 58% and 9% with HEK-293T (setting [7]). The “Population Tubulin-Different-Phenotype (%)” value in the data set with HEK-293T (setting [8]) was 87% and 7%. The “Population Pyknosed Nuclei (%)” value in the data set on Fibroblast (setting [6]) was 1% and 7%; in the data set with HEK-293T (setting [8]), 9% and 1%. For the same molecule, in the data set on HEK-293T (setting [6]), the “Population Hoechst High Intensity Objects (%)” value was 9% and 2%.

The values above are taken from ChEMBL document CHEMBL4689842, “EUbOPEN Chemogenomics Library wave 1” (2021).
